# Results: PMC6919601, “Identification of Plasmodium dipeptidyl aminopeptidase allosteric inhibitors by high throughput screening” (PLoS ONE, 2019)
# Out of some 110,000 compounds screened, about 230 (0.21%) showed an effect of 50% or more. This is one part of the list.
# Biological target: DPAP1 (Plasmodium falciparum, UniProt Q8IIJ9)
# Test: primary screen, percent inhibition; read by cleavage of a fluorogenic dipeptide substrate; higher = more effect of the substance
# Parameters: species or system P. falciparum D10 trophozoite lysates; single well
# 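Note: 30 min substrate incubation versus DMSO and 10 µM JCP410 controls.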
# Sequence of DPAP1 (Q8IIJ9 whole entry, looked up): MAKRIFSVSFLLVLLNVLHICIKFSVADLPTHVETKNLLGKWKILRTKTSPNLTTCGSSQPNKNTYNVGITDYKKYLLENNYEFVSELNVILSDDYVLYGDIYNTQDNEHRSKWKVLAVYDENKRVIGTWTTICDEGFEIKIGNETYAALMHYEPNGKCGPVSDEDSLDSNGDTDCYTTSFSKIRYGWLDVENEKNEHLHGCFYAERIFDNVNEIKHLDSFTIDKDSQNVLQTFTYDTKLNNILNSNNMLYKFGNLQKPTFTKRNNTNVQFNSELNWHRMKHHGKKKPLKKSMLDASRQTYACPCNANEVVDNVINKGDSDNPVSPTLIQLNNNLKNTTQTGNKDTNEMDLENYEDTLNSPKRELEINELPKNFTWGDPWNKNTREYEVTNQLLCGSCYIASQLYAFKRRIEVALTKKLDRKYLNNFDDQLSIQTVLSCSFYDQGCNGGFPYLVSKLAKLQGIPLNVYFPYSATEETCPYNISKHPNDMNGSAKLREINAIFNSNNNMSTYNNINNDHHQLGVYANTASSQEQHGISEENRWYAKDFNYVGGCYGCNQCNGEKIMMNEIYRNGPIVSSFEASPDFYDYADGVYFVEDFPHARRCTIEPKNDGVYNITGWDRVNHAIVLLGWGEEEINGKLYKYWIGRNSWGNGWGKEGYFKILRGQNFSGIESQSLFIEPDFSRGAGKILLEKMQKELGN
row,Compound,% Inhibition @ 10 uM [%]
1,CC(=O)N/C(=C\c1c[nH]c2ccccc12)C(=O)O,4.93
2,Cc1sc2ncn(CC(=O)NCC(=O)N3CCC4(CC3)OCCO4)c(=O)c2c1C,-7.66
3,CC1(C)NC(=O)N(Cc2ccccc2)C1=O,-5.14
4,O=C1NC(=O)c2cc(N3C(=O)c4ccc(Oc5ccc(Br)cc5)cc4C3=O)ccc21,0.755
5,Cn1c2c(c(=O)n(C)c1=O)C(NC(=O)C1CCCCC1)(C(F)(F)F)C(=O)N2 (stereo not drawn),-0.99
6,O=c1cccc2n1C[C@H]1C[C@@H]2CN(Cc2cccc(O)c2)C1,1.54
7,O=C(Nc1ccc2ccccc2c1)c1cnccn1,-2.91
8,O=C(Nc1ccccc1C(=O)NCc1ccccc1)c1ccccc1Cl,2.55
9,Cc1c(CNCc2ccc3c(c2)OCO3)c(C(=O)O)c(C)n1Cc1ccc(F)cc1,-3.67
10,CCC(C)c1ccc(NC(=O)c2cnn(C)c2)cc1 (stereo not drawn),4.05
11,CC(C)(C)c1ccc(C(=O)Nc2cccc(O)c2)cc1,1.39
12,C=CCN1C(=O)/C(=C/c2cc3ccccc3[nH]2)C(=O)NC1=S,0.962
13,O=C1c2cccnc2C(=O)N1CCc1ccc(S(=O)(=O)NC2CCCc3ccccc32)cc1 (stereo not drawn),-4.27
14,N#CC1=C2SCN(Cc3ccccc3)CN2C(=O)CC1c1cccs1 (stereo not drawn),40.5
15,CCOc1ccc2nc(NC(=O)CN(C)S(=O)(=O)c3c[nH]cn3)sc2c1,1.63
16,CCOC(=O)c1cnc2ccc(OC)cc2c1Cl,-0.357
17,Cc1cccc(OCC(=O)Nc2cccnc2Cl)c1,-1.52
18,N#Cc1c(NCc2ccccc2)ccnc1S,16.3
19,O=C1OC(c2ccccc2F)=N/C1=C\c1ccc2c(c1)OCO2,-7.96
20,Cc1ccc(Cl)cc1N(CC(=O)NC(C)c1ccccc1)S(C)(=O)=O (stereo not drawn),-0.796
21,Cc1oc(-c2ccc3c(c2)OCCO3)cc1C(=O)O,-0.403
22,OCCN(Cc1ccccc1)Cc1ccc(F)c(Br)c1,-7.17
23,COc1ccc(C2=N/C(=C\c3ccccc3C(F)(F)F)C(=O)O2)c(Cl)c1,-0.597
24,Cc1ccc(S(=O)(=O)N2CCC(c3c(C)n(CC(=O)N4CCCC4)c4ccccc34)CC2)c(C)c1,2.34
25,C=CCNC(=O)/C(C#N)=C/c1c(Oc2ccc(CC)cc2)nc2ccccn2c1=O,-4
26,c1csc(-c2nn3c(-c4ccncc4)nnc3s2)c1,-4.02

row,Compound,% Inhibition @ 10 uM [%]
1,N#CC1=C(N)OC2=C(C(=O)CC(c3ccccc3)C2)C1c1cc(Br)cs1 (stereo not drawn),1.96
2,CCOC(=O)c1cnc(Nc2nc3ccccc3o2)nc1CSc1ccc(Cl)cc1,4.94
3,CCc1c(C)sc(NC(=O)c2c(-c3ccccc3Cl)noc2C)c1C(N)=O,-7.23
4,CCCCN(C)Cc1c(O)ccc2ccccc12,4.88
5,O=C(CSc1nc(O)c(Cc2ccccc2F)c(O)n1)N1CCCCCC1,-5.28
6,COCCNC(=O)/C(C#N)=C/c1c(Oc2ccc(Br)cc2)nc2ccccn2c1=O,7.65
7,COc1ccc(NC(=O)/C(=C/c2ccc(Cl)cc2)NC(=O)c2ccco2)cc1,-7.09
8,C#CCN1C(=O)S/C(=C\c2cc3c(cc2Cl)OCO3)C1=O,5.17
9,CCOc1ccc(C(=O)C2=C(O)C(=O)N(CCCN3CCOCC3)C2c2ccc(F)cc2)c(C)c1 (stereo not drawn),1.31
10,Cc1oc(-c2cccc(Cl)c2)nc1CS(=O)CC(=O)NCc1ccc(Cl)cc1 (stereo not drawn),0.689
11,COc1ccc(S(=O)(=O)N(C)CCc2ccccn2)cc1,-3.13
12,Cc1cc(C)c(S(=O)(=O)Nc2noc3ccccc23)c(C)c1,2.19
13,Cc1ccc(CNC(=O)C2CCN(C(=O)c3ccc(-n4c(C)cc5ccccc54)s3)CC2)o1,-1.92
14,CCOc1ccc(NC(=O)NC(C(F)(F)F)C(F)(F)F)cc1,-2.44
15,CCS(=O)(=O)c1cccc2c(S(=O)(=O)CC)cccc12,-3.66
16,CNC(=O)C1=C(C)N=C(S)NC1c1ccccc1Cl (stereo not drawn),5.3
17,Cc1cc(C(=O)N2CCN(C3CCCCC3)CC2)c2c(C)nn(-c3ccccc3Cl)c2n1,-3.1
18,O=C(NCC1CCCO1)c1ccccc1Cl (stereo not drawn),-1.04
19,Cc1cc2ccccc2n1CCNC(=O)c1ccc(C(C)(C)C)cc1,-2.87
20,Cc1nnc(NC(=O)CSc2nc(-c3ccc(F)cc3)nc3c2c(=O)n(C)c(=O)n3C)s1,-1.08
21,Cc1c(C(=O)NCc2ccccn2)sc2nc3n(c(=O)c12)CCCCC3,-3.18
22,O=C(CCc1ccccc1)N1CCN(c2ccc(Cl)cc2)CC1,-0.436
23,C(=C\c1ccccc1)/CN1CCN(C2CCSC2)CC1 (stereo not drawn),-1.81
24,CCSC1=NSC2=NC(=O)/C(=C\c3ccc(OC)cc3)C(=N)N12,3.33
25,CC1=C(C(=O)Nc2ccccc2F)C(c2ccccc2C)C2=C(O)CCCC2=N1 (stereo not drawn),-7.3
